Data published in the supplement of paper PMC9433436.
± gives the standard deviation of the averaged measurements. In all, about 4,100 sequences were measured (“relative kcat/Km (krel) vs genomic leader AAAGAU”: median about 1.7, highest 2% from about 6.5 on). This is a selection; strong and weak results do not stand in their true shares.

Molecular target: T1, E. coli RNase P holoenzyme (M1 P RNA + rnpA protein) (UniProt P0A7Y8)
T1 sequence: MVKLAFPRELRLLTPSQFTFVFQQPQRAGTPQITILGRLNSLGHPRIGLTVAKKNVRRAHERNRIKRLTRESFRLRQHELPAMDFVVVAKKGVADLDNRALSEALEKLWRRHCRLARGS
Assay: relative kcat/Km (krel) vs genomic leader AAAGAU (relative (reference leader = 1)); higher = faster RNase P cleavage
Procedure: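 HTS-Kin: a pool of ptRNA-Met (21C construct) with all 4096 combinations of 5' leader nucleotides N(-6) to N(-1) was processed in vitro by E. coli RNase P (P RNA + rnpA/C5 protein) under multiple-turnover conditions at 37 C, pH 8, 17.5 mM MgCl2. Residual substrate was Illumina-sequenced at several fractions reacted, and relative kcat/Km (krel) was computed by internal competition kinetics, calibrated to the genomic leader (AAAGAU = 1). The listed hexamer is the varied N(-6)..N(-1) leader (DNA letters), and it sits between a fixed 5' stem-loop flank (GCAUGCACGAAAGUGCGUGCUAUGAA) and the mature tRNA-Met starting GGCUACGUAGCUCAGUUGG. Two technical replicates are averaged.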

[1] = fraction of substrate reacted: ~13-16% (15.68% repeat 1, 13.17% repeat 2)
[2] = fraction of substrate reacted: ~26-29% (28.66% repeat 1, 26.4% repeat 2)
[3] = fraction of substrate reacted: ~9-10% (9.79% repeat 1, 9.1% repeat 2)

Sequence	relative kcat/Km [1]	relative kcat/Km [2]	relative kcat/Km [3]
CGGCAA	1.14 ± 0.063	0.649 ± 0.17	–
CAGATT	2 ± 0.1	2.79 ± 0.81	1.72 ± 0.68
TCTGAT	1.47 ± 0.22	1.59 ± 0.62	1.67 ± 1.6
AAGTTG	0.103 ± 0.023	0.926 ± 0.52	–
CAGAAT	3.13 ± 0.42	4.72 ± 2.1	2.85 ± 1.1
ATAGAT	2.32 ± 0.19	2.5 ± 1.2	2.26 ± 0.79
GCAGTC	1.29 ± 0.15	1.228 ± 0.0023	1.5 ± 0.23
GCCGGC	0.571 ± 0.045	0.606 ± 0.54	–
GCGTTT	1.71 ± 0.26	2.21 ± 0.94	1.84 ± 0.65
GTTTCG	–	1.76 ± 0.37	–
ACTCCT	1.32 ± 0.32	1.71 ± 0.23	1.44 ± 0.49
ACGGAT	–	1.93 ± 1.6	1.67 ± 1.6
CTCCAC	5.88 ± 1.5	7.81 ± 3.1	4.55 ± 1.9
TTATGG	0.58 ± 0.55	1.11 ± 0.39	0.845 ± 0.39
AGACTA	1.67 ± 0.34	1.91 ± 0.59	1.58 ± 0.15
AGGGCA	1.1 ± 0.99	1.14 ± 0.86	–
AGGAAA	1.35 ± 0.19	1.54 ± 0.67	0.893 ± 0.84
GAGGTG	–	0.61 ± 0.57	–
CCGATT	–	1.99 ± 0.2	1.46 ± 0.5
AACTTC	3.49 ± 0.17	4.33 ± 1.5	3.37 ± 1.2
TCCACC	4.79 ± 0.6	6.05 ± 2.2	3.85 ± 0.9
TTGAAG	0.928 ± 0.21	2.99 ± 1	1.84 ± 1.3

Sequence	relative kcat/Km [1]	relative kcat/Km [2]	relative kcat/Km [3]
CATGAT	1.21 ± 0.065	1.64 ± 0.31	1.51 ± 0.71
CATACC	1.67 ± 0.36	2.34 ± 1.2	1.81 ± 0.39
TGATTT	3.7 ± 0.56	4.76 ± 1.8	3.14 ± 0.87
ATATGC	2.85 ± 0.41	4.67 ± 1.9	2.55 ± 1.6
GTTAAA	2.94 ± 0.51	3.99 ± 1.8	1.82 ± 0.016
CAGGAC	2.31 ± 0.13	2.09 ± 0.77	1.68 ± 0.75
CTGAGT	–	0.378 ± 0.19	–
TTGCTC	1.94 ± 0.51	2.18 ± 0.68	1.61 ± 0.29
ATTGCA	1.61 ± 0.49	2.04 ± 0.69	2.08 ± 0.54
GCTGAC	1.79 ± 1	1.68 ± 0.061	1.36 ± 0.04
TCACCA	1.02 ± 0.38	1.97 ± 0.4	1.66 ± 1.2
AGAGGG	–	0.989 ± 0.85	–
TGAGCA	1.32 ± 0.54	1.63 ± 0.16	2.05 ± 0.85
ATGTCC	2.34 ± 0.077	2.9 ± 0.86	2.28 ± 0.33
TGCGCC	1.37 ± 0.65	2.36 ± 1.1	1.73 ± 0.81
CTCCAT	5.67 ± 1.3	8.48 ± 4	4.25 ± 0.86
TGGAAA	0.838 ± 0.78	1.61 ± 0.29	1.63 ± 1.1
GGCCTC	0.933 ± 0.5	1.94 ± 0.76	1.28 ± 0.39
TACAGG	–	1.7 ± 0.63	–
CCACTA	0.737 ± 0.36	1.25 ± 0.33	2.04 ± 0.79
CGTATT	3.75 ± 0.57	4.61 ± 1.8	2.49 ± 0.91
TAAGCT	1.15 ± 1.1	1.46 ± 0.35	0.634 ± 0.17

Sequence	relative kcat/Km [1]	relative kcat/Km [2]	relative kcat/Km [3]
TAAAGG	–	0.833 ± 0.34	–
GTGATG	–	1.09 ± 0.41	2.12 ± 1.9
TAGACC	2.19 ± 0.16	2.67 ± 0.87	1.49 ± 0.094
GCAGCA	0.509 ± 0.46	0.85 ± 0.26	1.21 ± 0.31
TTTTCA	1.86 ± 0.42	2.97 ± 0.84	2.11 ± 1.6
TATGCT	1.14 ± 0.41	1.43 ± 0.56	0.898 ± 0.54
TACGGT	–	3.36 ± 2.5	–
TTCAAA	–	–	4.87 ± 2.9
GATCCA	0.89 ± 0.35	1.72 ± 0.51	1.34 ± 0.85
AAGCGA	1.44 ± 1.2	2.34 ± 0.72	1.73 ± 0.67
CATATT	2.4 ± 0.37	3.79 ± 1.4	1.98 ± 1.2
ATAGGC	–	1.49 ± 1.3	–
CGCTCC	3.29 ± 0.4	4.58 ± 1.6	3.25 ± 0.17
TAAAAG	0.854 ± 0.14	2.39 ± 0.65	1.83 ± 1.3
TCATAC	5.72 ± 0.91	–	4.3 ± 0.51
ACCCGT	1.9 ± 1.9	1.96 ± 1.4	1.55 ± 1.5
CATGCG	0.367 ± 0.28	0.698 ± 0.016	–
GCGCTA	0.59 ± 0.043	1.17 ± 0.39	–
AGCACT	–	2.23 ± 0.84	1.86 ± 0.89
ACGTCA	2.15 ± 0.55	2.79 ± 1.2	1.77 ± 0.7
AATATC	1.67 ± 0.073	2.18 ± 0.7	1.63 ± 0.61
GTATAC	4.72 ± 0.97	6.65 ± 2.7	3.66 ± 2.2
